Experimental data from PubChem BioAssay AID493208 (National Center for Advancing Translational Sciences (NCATS), 2011).
The whole screen tested about 44,000 compounds, of which about 340 (0.77%) were called active. Another 5% or so got no clear call; they are omitted. Calls follow the shape of the dose curve; as a rule, active = well fitted inhibition curve with a large enough effect; inconclusive = small, poorly fitted or top-dose-only effect; inactive = flat fitted curve, though single readings scatter. Some of the results follow.

Assay: Acumen qHTS Assay for Inhibitors of the mTORC1 Signaling Pathway in MEF (Tsc2-/-, p53-/-) Cells: Sytravon;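 also: plate controls were DMSO for no effect and rapamycin for full effect; nearly all actives have a fitted effect of over 50% in size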
Conditions: phospho-rpS6 immunofluorescence/PI, 24 h; series mostly up to 38.3 µM; activity change, negative = inhibition: at the top concentration
Procedure, shortened: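 Read-out: phospho-S6 Alexa-488 intensity over PI intensity per well, scored as % active cells using thresholds from rapamycin (7.5 nM) and DMSO controls. Tsc2-/-, p53-/- MEFs exposed to compound for 24 h; PI cell count recorded as viability.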

Activity change, negative = inhibition, inactive:
CCC(=O)Nc1sc2c(c1C(=O)Nc1ccc(OC)cc1)CCC(C(C)(C)C)C2 (stereo not drawn) 3.85%
O=C(Nc1ccc(S(=O)(=O)N2CCC(c3nc4ccccc4s3)CC2)cc1)c1ccc(F)cc1 2.36%
Cc1cc(C)c(S(=O)(=O)NCCc2cc3c(C)ccc(C)c3[nH]c2=O)c(C)c1 -13.4%
Cc1ccc(NC(=O)C2Cc3ccccc3N2C(=O)c2ccccc2)cc1Cl (stereo not drawn) 0%
CCCC(=O)NCCc1nc2ccccc2n1Cc1c(F)cccc1Cl 9.79%
Cc1ccc(C)c(-n2nnc(-c3nc(-c4ccc(Cl)cc4)no3)c2N)c1 -8.25%
COc1ccc(NC(=O)c2sc3nc(C)c(C(=O)Nc4ccc(C)cc4C)c(-c4ccc(Cl)cc4)c3c2N)cc1 2%
O=C(NCc1ccc2c(c1)CCN2C(=O)c1ccncc1)c1cccc(Cl)c1 -0.296%
COc1ccc(OC)c(NC(=O)CSC2=Nc3ccccc3C3=NC(CC(=O)NCc4ccco4)C(=O)N23)c1 (stereo not drawn) 2.1%
N#Cc1ccc(C(=O)Nc2ccc(Cl)c(-c3nc4cc(Cl)ccc4o3)c2)c(F)c1 -16%
Cc1oc(-c2ccccc2F)nc1CS(=O)(=O)CC(=O)N1CCN(c2cccc(C(F)(F)F)c2)CC1 -1.31%
CCN(C(=O)c1nn(-c2ccc(OC)c(Cl)c2)c(=O)c2c1c1ccccc1n2C)c1cc(OC)ccc1OC -12.4%
Cc1ccc(NC(=O)c2cccc(NC(=O)N3CCSc4ncccc43)c2)cc1Cl -9.49%
COc1ccc(N2CCN(C(=O)Cn3ncc4c3-c3cc(C)ccc3OC4)CC2)cc1 -3.15%
COc1ccc(-c2nc3sc(CCNC(=O)C(=O)Nc4cc(C)cc(C)c4)c(C)n3n2)cc1 -0.267%
COc1cc(OC)cc(C(=O)Nc2cc(-c3nc4ccccc4s3)ccc2OC)c1 -0.759%
Cc1ccc(C(=O)NCC(c2cccs2)S(=O)(=O)c2cccs2)cc1C (stereo not drawn) 0.582%
CCOc1ccc(NC(=O)CN(C)S(=O)(=O)c2ccc3c(c2)c(=O)n(C)c(=O)n3C)cc1 -13.5%
COc1ccc(C(=O)NCC(c2cccnc2)N2CCN(c3ccc(F)cc3)CC2)cc1 (stereo not drawn) -1.45%
O=C(NCC(c1ccc(Cl)cc1)N1CCCCC1)c1ccc(F)cc1 (stereo not drawn) -2.27%
Nc1nc(N)c(S(=O)(=O)c2ccccc2)c(Nc2ccc(Br)cc2)n1 -7.01%
COc1cccc(-c2cc(C(F)(F)F)nc(-n3nc(C)c(Br)c3C)n2)c1 -11.9%
Cc1ccc(-n2c(SCc3ccccc3F)nc3[nH]ncc3c2=O)cc1C -9.64%
COc1ccccc1CNC(=O)c1cccn1-c1nnc(N2CCCC2)s1 6.34%
O=C(CSc1ccc2nc(-c3ccccc3)cn2n1)Nc1ccccc1C(F)(F)F -1.25%
Cc1cccc(NC(=O)C(=O)c2cc(C)n(-c3ccccc3)c2C)c1C -0.754%
CCOc1cccc2cc(-c3nc4sc(C(=O)Nc5ccc(C)cc5)c(C)c4c(=O)[nH]3)c(=O)oc12 2.77%
O=C(Nc1cccc(C(F)(F)F)c1)c1noc2c1CCc1ccccc1-2 -2.88%
CC(=O)c1cc(-c2ccccc2)n(CC(=O)NC2CCCCCC2)c1C -4.79%
COc1ccc(N2CCN(C(=O)CSCc3nc(-c4ccccc4Cl)oc3C)CC2)cc1 0.974%
CCc1nc(-c2cc(S(=O)(=O)N3CCN(c4ccc(F)cc4)CC3)ccc2OC)no1 0.241%
CN(C1CCCCC1)S(=O)(=O)c1ccc(C(=O)Nc2sc3c(c2C(N)=O)CC(C)(C)NC3(C)C)cc1 7.61%
Cc1cc(O)c(C(c2cccc(F)c2)N2CCC(C)CC2)c(=O)n1Cc1ccco1 (stereo not drawn) -11.5%
O=C(Cn1c(=O)n(Cc2cccs2)c(=O)c2cccnc21)Nc1ccccc1F -0.363%
O=C(NCCc1ccc(Cl)cc1)c1cccn1-c1nnc(N2CCCCC2)s1 10.6%
Cc1cccc(NC(=O)CSc2nc3c(c(=O)[nH]2)CN(Cc2ccc4c(c2)OCO4)CC3)c1C 5.62%
CNC(=O)c1ccc(Nc2nnc(-c3ccc(C)c(S(=O)(=O)NC(C)(C)C)c3)c3ccccc23)cc1 3.76%
CCc1ccc(-n2c(=O)c3cccnc3n2CC(=O)NCc2ccc(F)cc2)cc1 6.91%
COc1ccccc1NC(=O)CCN1CCC(C(N)=O)CC1 -6.44%
CCOC(=O)N1CCc2c(sc3c2c(=O)n(Cc2ccccc2)c(=O)n3CC(=O)Nc2c(C)cccc2C)C1 -10.4%
Cn1c(=O)c(=O)n(C)c2cc(S(=O)(=O)N3CCN(c4ccccc4F)CC3)ccc21 -21.9%
COc1ccc(CCNC(=O)Cc2c(C)c3cc(OC)c(OC)cc3oc2=O)cc1 -3%
Cc1cccc(C)c1OCC(=O)Nc1nonc1-c1ccc(Br)cc1 5.12%
Cc1ccc(C(=O)Nc2ccc(-n3c(C)nc4ccccc4c3=O)cc2)cc1[N+](=O)[O-] -0.872%
O=C(Nc1nc2n(n1)C(c1ccc(F)cc1)C=C(c1ccc(Cl)cc1)N2)c1ccco1 (stereo not drawn) 0.754%
CCN(C(=O)CCS(=O)(=O)c1cccc2nsnc12)c1cccc(C)c1 -25.4%
CCOc1ccc2oc(=O)cc(CN3CCN(c4ccc(OC)cc4)CC3)c2c1 -0.894%
CCN(C(=O)c1cc2c(s1)-c1c(C)cccc1OC2)c1cc(C)ccc1C 0.967%
COc1ccc(OC)c(NC(=O)Cn2c(=O)oc3cc(S(=O)(=O)NCc4ccccc4)ccc32)c1 1.43%
O=C(NCC12CC3CC(CC(C3)C1)C2)c1cc2nc(-c3ccc(Cl)cc3)cc(C(F)(F)F)n2n1 -2.38%
Clc1cccc(-c2nnc(CN3CCN(c4ccccn4)CC3)o2)c1 0.693%
CC(C)NC(=O)Cn1ncn2c(cc3cc(F)ccc32)c1=O -1.22%
CCc1nc2ccc(C(=O)NCCc3ccc(SC)cc3)cc2nc1CC 0.0007%
COC(=O)c1c(SCC(=O)Nc2cccc(C(F)(F)F)c2)[nH]c2ccccc2c1=O -0.896%
COc1ccc(NC(=O)C(CC(C)C)NC(=O)C2CCCCC2)c(OC)c1 (stereo not drawn) 1.16%
Cc1cc(S(=O)(=O)Nc2cc3c(cc2N2CCOCC2)n(C)c(=O)n3C)ccc1F 1.56%
COc1ccc(NC(=O)C2CCN(C(=O)c3sc4nc[nH]c(=O)c4c3C)CC2)c(OC)c1 -7.18%
Cc1cccc(N2CCN(c3nc4ccccc4c4nc(-c5ccccc5)nn34)CC2)c1C -6.91%
CC(=O)OCc1cnc(C)c2oc(=O)c(C(=O)Nc3ccc(F)cc3C)cc12 3.56%
CCc1ccccc1N1CC(c2nnc(NC(=O)c3ccco3)s2)CC1=O (stereo not drawn) -9.25%
CCN(CC)S(=O)(=O)c1ccc2c(c1)N(CC(=O)N1CCN(c3cc(Cl)ccc3C)CC1)C(=O)CO2 -0.622%
CCOc1ccc(CNC(=O)C2CCN(C3=NS(=O)(=O)C(c4ccc(C)cc4)=C3CC)CC2)cc1 -2.61%
COc1cc(NC(=O)c2cc(-c3ccccc3O)no2)cc(OC)c1OC 9%
CC(=O)Nc1nonc1-c1nnc(SCC(=O)Nc2ccccc2Cl)n1C 0.124%
COc1ccc(C2CC(=O)c3cc(-c4nc(-c5ccc(Cl)cc5)cs4)c(=O)[nH]c3C2)cc1 (stereo not drawn) 1.8%
CC(C)n1c(SCC(=O)c2ccc(F)cc2)nc2c(sc3ccccc32)c1=O -4.89%
COc1ccc(CCNC(=O)c2c(Nc3ccccc3C)sc(C(=O)c3ccccc3)c2N)cc1OC -3.8%
Cc1cccc2nc(Cn3c(=O)n(-c4ccccc4)c(=O)c4c5c(sc43)CCC5)cc(=O)n12 -0.549%
COc1ccccc1OCCCn1c(C2CC(=O)N(c3ccc(F)cc3)C2)nc2ccccc21 (stereo not drawn) -4.93%
CCOc1ccccc1NC(=O)CSc1nnc(CC)c(CC)n1 -7.6%
COc1ccc(-c2nn(C)c3sc(C(=O)Nc4cc(OC)c(OC)c(OC)c4)cc23)cc1OC -16.9%
CCCN(C(=O)c1c(C)oc2ncn(CC(C)C)c(=O)c12)c1ccccc1C 6.16%
CCN1c2ccccc2-c2nc(SCC(=O)Nc3cc(OC)cc(OC)c3)ncc2S1(=O)=O -11.3%
CCCOc1ccc(C(=O)Nc2cc(-c3nc4ccccc4[nH]3)ccc2C)cc1 9.32%
COc1cccc(CN2CCCN(Cc3ccc(F)cc3)S2(=O)=O)c1 -7.56%
COc1cccc(CNC(=O)c2cc3cc(C)ccc3n2C)c1 -6.53%
Cc1ccc(O)c(NC(=O)C2=CC(c3cccs3)=NS(=O)(=O)N2C)c1 -6.3%
Cc1ccccc1OCC(=O)Nc1nnc(SCc2cc(=O)n3cccc(C)c3n2)s1 0.453%
COc1ccc(C)cc1NC(=O)C1CCN(S(=O)(=O)Cc2ccccc2)CC1 3.79%
Cc1c(NC(=O)C(C)(C)C)cccc1-c1nc2ccccc2s1 -3.14%
Cc1ccc(-n2nc(C(=O)N3CCN(c4cc(C)ccc4C)CC3)c3c4ccccc4n(C)c3c2=O)cc1 -5.34%
CCOc1ccccc1NC(=O)Cn1c(=O)n(-c2ccc(Cl)cc2)c(=O)c2oc3ccccc3c21 -0.403%
Cn1cc(S(=O)(=O)N2CCc3ccccc32)cc1C(=O)Nc1ccc(C(F)(F)F)cc1 -1.7%
CC1Cc2cc(S(=O)(=O)CCC(=O)Nc3ccc(F)cc3Cl)ccc2N1C(=O)C1CC1 (stereo not drawn) -4.12%
CCN(CC)c1ccc(NC(=O)Cn2cc3c(n2)CCCC3)c(C)c1 -14.1%
CCc1ccc(NC(=O)CSc2nc3c([nH]c4ccccc43)c(=O)n2C)cc1 1.05%
Cn1c(=O)n(C)c2cc(N3CCCCC3)c(NC(=O)Nc3ccc(Br)cc3)cc21 -18.8%
Cc1ccc(CNC(=O)C2CCCN(c3nn4cc(-c5ccc(C)cc5)nc4s3)C2)cc1 (stereo not drawn) 1.91%
Cc1ccc(-n2c(=O)c3ccc(C(=O)NCc4ccccc4Cl)cc3n(Cc3cccc(F)c3)c2=O)cc1 -0.505%
COc1ccc(N2CCN(C(CNC(=O)c3c(F)cccc3F)c3ccc4c(c3)OCO4)CC2)cc1 (stereo not drawn) 1.46%
CCOC(=O)c1cc2c(=O)n3ccccc3nc2n(CC2CCCO2)c1=NC(=O)c1ccccc1OCC (stereo not drawn) -1.21%
CCOc1ccc(-n2cc(-c3ccccc3)c3c(NCc4ccccc4)ncnc32)cc1 6.94%
COC(=O)Cc1c(C)c2ccc3c(c2oc1=O)CN(Cc1ccc(Cl)cc1)CO3 -2.82%
